Experiments:
[1] = molecular target: T1, receptor FcγRIIB (on HMC-1 cells) (UniProt P31994 43-310, limits assumed); assay: flow cytometry, 5 µg protein on 1×10^6 HMC-1 cells expressing FcγRIIB, anti-human IgG Fc-FITC detection
T1 construct: whole, on cells; HMC-1 cells (expressing receptor FcγRIIB)
T1 sequence (looked up): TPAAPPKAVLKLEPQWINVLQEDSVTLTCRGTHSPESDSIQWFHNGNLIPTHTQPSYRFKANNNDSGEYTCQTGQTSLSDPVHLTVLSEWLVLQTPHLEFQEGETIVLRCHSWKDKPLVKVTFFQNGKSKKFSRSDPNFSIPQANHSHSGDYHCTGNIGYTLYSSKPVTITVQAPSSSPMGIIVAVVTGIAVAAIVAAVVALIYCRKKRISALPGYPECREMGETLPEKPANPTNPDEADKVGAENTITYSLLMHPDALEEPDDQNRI
Procedure: Assay of binding to receptor FcγRII: 1×10⁶ HMC-1 cells (expressing receptor FcγRIIB) were separately reacted with 5 μg of hIgG, 5 μg of FP4 and 5 μg of MEG protein purified in Example 2 at 4° C. for 1 hour. After washing, 5 μL of anti-human IgG Fc-FITC labeled antibody (CALTAG, CA) was added, and the cells were detected by a flow cytometer.

[2] = molecular target: T2, FcγRI extracellular domain protein tagged with biotin (Sino Biological Inc.) (UniProt P12314 16-292, limits assumed, tagged with biotin (site not stated)); assay: ELISA, second round: MEG coated at 2 µg/mL, biotin-tagged receptor extracellular domain, streptavidin-HRP
T2 construct: extracellular domain; Bought reagent; also called FcgRI
T2 sequence (P12314 16-292 limits assumed): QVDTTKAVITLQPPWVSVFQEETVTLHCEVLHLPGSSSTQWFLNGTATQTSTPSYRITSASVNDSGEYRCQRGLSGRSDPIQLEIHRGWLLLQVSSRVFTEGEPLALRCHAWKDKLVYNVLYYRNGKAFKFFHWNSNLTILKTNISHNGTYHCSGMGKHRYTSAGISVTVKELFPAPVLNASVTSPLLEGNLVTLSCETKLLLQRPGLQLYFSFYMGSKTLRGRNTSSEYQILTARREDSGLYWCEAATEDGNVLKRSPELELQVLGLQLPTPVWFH
Procedure: (§1) 100 μL of MEG at an appropriate concentration (2 μg/mL) was added to each well of enzyme-linked plates for coating overnight, the supernatant was discarded, blocking was performed with PBS containing 1% BSA for 2 hours, the plates were washed twice with PBST (PBS containing 0.05% Tween 20), extracellular domain proteins such as FcγRI, FcγRIIAH, FcgRIIAR, FcgRIIIAF, FcgRIIIAV or FcγRIIB tagged with biotin (Sino Biological Inc.) at an appropriate concentration were added separately, incubation was performed at room temperature for 1 hour, and then the supernatant was discarded. The plates were washed three times with PBST. Streptavidin-HRP (BD Biosciences) was added, incubation was performed at room temperature for 1 hour, and biotin protein was detected. The supernatant was removed, and the plates were washed four times with PBST. A color development solution was added for color development for 5-40 minutes, and then the absorbance A650 at 650 nm was measured.

[3] = molecular target: T3, FcgRIIAR extracellular domain protein tagged with biotin (Sino Biological Inc.) (UniProt P12318 34-217, tagged with biotin (site not stated)); assay: as above
T3 construct: extracellular domain; R subtype of FcγRIIA; also called R subtype of FcγRIIA
T3 sequence (looked up): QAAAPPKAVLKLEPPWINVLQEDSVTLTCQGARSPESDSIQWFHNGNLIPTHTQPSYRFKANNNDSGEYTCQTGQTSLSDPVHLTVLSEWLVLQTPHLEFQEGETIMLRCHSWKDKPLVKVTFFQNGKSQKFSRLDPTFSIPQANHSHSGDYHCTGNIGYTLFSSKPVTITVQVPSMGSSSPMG
Procedure: as §1

[4] = molecular target: T4, FcgRIIIAF extracellular domain protein tagged with biotin (Sino Biological Inc.) (UniProt P08637 part only, limits assumed, tagged with biotin (site not stated)); assay: as above
T4 construct: extracellular domain; F subtype of FcγRIIIA; also called F subtype of FcγRIIIA
Procedure: as §1

[5] = molecular target: T5, FcgRIIIAV extracellular domain protein tagged with biotin (Sino Biological Inc.) (UniProt P08637 part only, tagged with biotin (site not stated)); assay: as above
T5 construct: extracellular domain; V subtype of FcγRIIIA; also called V subtype of FcγRIIIA
Procedure: as §1

binding result [1]: binds
binding result [2]: no binding
binding result [3]: no binding
binding result [4]: no binding
binding result [5]: no binding
B1: fusion protein MEG (Fc fusion)
chain: FTPPTVKILQSSCDGGGHFPPTIQLLCLVSGYTPGTINITWLEDGQVMDVDLSTASTTQEGELASTQSELTLSQKHWLSDRTYTCQVTYQGHTFEDSTKKCADSNPRGVSAYLSRPSPFDLFIRKSPTITCLVVDLAPSKGTVNLTWSRASGKPVNHSTRKEEKQRNGTLTVTSTLPVGTRDWIEGETYQCRVTHPHLPRALMRSTTKTSGPRAAPEVYAFATPEWPGSRDKRTLACLIQNFMPEDISVQWLHNEVQLPDARHSTTQPRKTKGSGFFVFSRLEVTRAEWEQKDEFICRAVHEAASPSQTVQRAVSVNPGK[letters of human IgG1 Fc with P238D (EU numbers) omitted]
notes: Expressed in CHO cells; Has a P to D mutation in Fc-gamma relative to FP4; also called MEG protein

Source: patent US20250154260A1 (published 2025)
